Molecules are shown by their SMILES. The whole screen tested about 45,000 compounds, of which about 200 (0.44%) were called active. Inconclusive results (about 7%) are left out. Calls follow the shape of the dose curve; as a rule, active = well fitted activation curve with a large enough effect; inconclusive = small, poorly fitted or top-dose-only effect; inactive = no such curve, though single readings can be large or run the other way. Some of the results follow.

This assay can be described thus: qHTS of TDP-43 Inhibitors: NCGC Sytravon Library Screen. Also: 0% is about no effect; nearly all actives have a fitted effect of over 55% in size. The conditions noted are these: yeast TDP-43 toxicity rescue, BacTiter-Glo growth, 24 h; series mostly up to 46.1 µM; growth rescue (activation): at the top concentration. In a few lines: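 TDP-43-expressing yeast, pregrown in raffinose, seeded at OD600 0.02 in galactose medium with compound for 24 hr at 30 deg C. Growth read by BacTiter-Glo luminescence, so rescue of toxicity appears as activation.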
On the technique in general: Quantitative high-throughput screening tests each substance at several concentrations.
For `C#CC(C)(CC)NC(=O)Cn1nnc(-c2ccc(OCc3c(F)cccc3Cl)cc2)n1` (configuration not stated), the “growth rescue (activation)” value was inactive: 2.54%.

For `COc1ccc2[nH]c(=O)c(CN(C)C(=O)c3cccs3)cc2c1`, the “growth rescue (activation)” value was inactive: -33%.

In the case of `COc1ccccc1CNC(=O)c1ccc2c(c1)OCO2`, the “growth rescue (activation)” value is inactive: 26.6%.

Consider `Oc1ccc(Br)cc1/C=N/n1c(C2CCCCC2)n[nH]c1=S`, for which the “growth rescue (activation)” value was inactive: -5.83%.

On to `COc1cccc2cc(C(=O)OCC(=O)N3CC(C)OC(C)C3)c(=O)oc12` (configuration not stated), for which the “growth rescue (activation)” value is inactive: 1.73%.

Take `CC(=O)N/C(=C\c1ccc(Br)s1)C(=O)O`: the “growth rescue (activation)” value was inactive: 1.59%.

As to `O=C(COC(=O)c1ccc(O)cc1)Nc1ccccc1`, the “growth rescue (activation)” value was inactive: 9.41%.

Regarding `CCOC(=O)N1CCC(N(CCN(C)C)C(=S)Nc2cccc(C)c2)CC1`, the “growth rescue (activation)” value was inactive: 17.1%.

On to `COc1ccc(N(CC(=O)Nc2c(C)n(C)n(-c3ccccc3)c2=O)S(=O)(=O)c2ccc(C)cc2)cc1`, for which the “growth rescue (activation)” value is inactive: -21.2%.

`Cc1ccccc1OCCNC(=O)/C=C/c1ccccc1`: the “growth rescue (activation)” value was inactive: -19.2%.

`CCOc1cc(/C=C2\CN(CC)C/C(=C\c3ccc(O)c(OCC)c3)C2=O)ccc1O`: the “growth rescue (activation)” value is inactive: 7.9%.

`O=C(Nc1ccc(Br)cc1)C1C2C=CC3(O2)C1C(=O)N(CCN1CCCCC1)C3C(=O)NC1CCCCC1` (configuration not stated): the “growth rescue (activation)” value is inactive: 11.9%.

Take `Cc1ccc(CN2CCN(Cc3cccn3-c3nccs3)CC2CCO)cc1` (configuration not stated): the “growth rescue (activation)” value was inactive: 6.74%.

As to `CCOc1ccc(NC(=O)CN(C)C(=O)C2COc3ccccc3O2)cc1OCC` (configuration not stated), the “growth rescue (activation)” value is inactive: -11.9%.

On to `Cc1ccccc1NS(=O)(=O)c1cc(C(=O)N2CCCC2)ccc1Cl`, for which the “growth rescue (activation)” value is inactive: 1.44%.

`CCOC(=O)C1(Cc2ccccc2Cl)CCN(Cc2csc(C(C)=O)c2)CC1`: the “growth rescue (activation)” value is inactive: 5.39%.

As for `COc1cccc(-c2nc(-c3ccc(Br)o3)no2)c1`, the “growth rescue (activation)” value was inactive: 5.15%.

In the case of `COc1ccc(CC(=O)NCC2CCCN(Cc3cccc(SC)c3)C2)cc1` (configuration not stated), the “growth rescue (activation)” value is inactive: 0.87%.

As for `Cc1ccc(NC(=O)C2C3C=CC4(O3)C2C(=O)N(CCCN2CCCC(C)C2)C4C(=O)NC2CCCCC2)cc1` (configuration not stated), the “growth rescue (activation)” value was inactive: 8.1%.

With `O=C(CSc1nnc2ccccn12)Nc1cccc(-c2nc3ccccc3s2)c1`, the “growth rescue (activation)” value is inactive: 24.5%.

Consider `CCOc1ccccc1NC(=O)Cn1nnc(C(=O)NCc2cccs2)c1N`, for which the “growth rescue (activation)” value was inactive: -7.39%.

For `O=C(NCc1ccc(N2CCCC2=O)cc1)c1cc(COc2c(F)cccc2F)on1`, the “growth rescue (activation)” value is inactive: 24.1%.

On to `O=C(NCC1CCCO1)c1cc([N+](=O)[O-])ccc1Cl` (configuration not stated), for which the “growth rescue (activation)” value is inactive: 12.7%.

For `CCN(CC)NC(=O)Nc1ccccc1`, the “growth rescue (activation)” value was inactive: -20.4%.

Regarding `CN(C)S(=O)(=O)c1ccc(Cl)c(NC(=O)CN2CCc3ccccc3C2)c1`, the “growth rescue (activation)” value was inactive: 3.14%.

On to `Cc1cccc(C(=O)Nc2ccc(C(=O)N3CCCCC3C)cc2)c1` (configuration not stated), for which the “growth rescue (activation)” value is inactive: 7.07%.

On to `Cc1ccc(S(=O)(=O)Nc2cc(C)c(O)cc2C)cc1`, for which the “growth rescue (activation)” value was inactive: 3.49%.

On to `CC(=O)c1cc(C(=O)Nc2ccc3ccccc3c2)c(C)o1`, for which the “growth rescue (activation)” value is inactive: 9.37%.

On to `O=C(CSc1nc2ccccc2[nH]1)Nc1nc(-c2ccc(Br)cc2)cs1`, for which the “growth rescue (activation)” value is inactive: 17%.

For `O=C(CSc1nc2ccccc2c(=O)[nH]1)Nc1ccc([N+](=O)[O-])cc1`, the “growth rescue (activation)” value is inactive: 2.12%.

Take `CC1CN(c2ccc([N+](=O)[O-])c(NCCOc3ccccc3)c2)CC(C)N1` (configuration not stated): the “growth rescue (activation)” value was inactive: -3.09%.

Consider `Cc1ccc(NC(=O)c2ccco2)c(NC(=O)CN2C(=O)c3ccccc3C2=O)c1`, for which the “growth rescue (activation)” value is inactive: 5.94%.

In the case of `O=C(NCCSc1ccccc1)c1ccc(Br)cc1`, the “growth rescue (activation)” value was inactive: 17.6%.

For the compound `Cc1ccc(-n2c(O)c(C=Nc3ccccc3-c3n[nH]c(=S)[nH]c3=O)c3ccccc3c2=O)cc1C`, the “growth rescue (activation)” value is inactive: 5.52%.

Take `Cn1nc(C(=O)NNC(=O)COc2ccccc2)c2ccccc2c1=O`: the “growth rescue (activation)” value was inactive: 1.21%.

As for `O=C(Nc1ccc(S(=O)(=O)NCc2ccco2)cc1)c1ccc(F)cc1`, the “growth rescue (activation)” value was inactive: -20.7%.

For the compound `CC(=O)NC1CC2CCCC(C1)N2C(=O)Nc1cccc(C)c1` (configuration not stated), the “growth rescue (activation)” value was inactive: -2.87%.

Take `Brc1ccccc1OCCOc1cccc2cccnc12`: the “growth rescue (activation)” value was inactive: 26.5%.

On to `Cn1c(SCC(=O)NC2CC2)nnc1-c1ccccc1Cl`, for which the “growth rescue (activation)” value was inactive: 7.68%.

On to `Cc1ccc(C(=O)N/N=C/c2sc(=O)n(Cc3cccc(C(=O)O)c3)c2Cl)cc1`, for which the “growth rescue (activation)” value is inactive: 10.4%.

Turning to `O=C1CC(c2ccco2)CC(O)=C1C=NCCN1CCN(C(=O)Nc2ccc(Cl)cc2)CC1` (configuration not stated), the “growth rescue (activation)” value was inactive: -7.65%.

On to `C=CCn1c(SCC(=O)Nc2ccc(O)cc2)nc2sc(CC)cc2c1=O`, for which the “growth rescue (activation)” value was inactive: 8.41%.

Regarding `CC(C)c1nc(SCC(=O)Nc2cccc3ccccc23)n[nH]1`, the “growth rescue (activation)” value is inactive: 13.5%.

`COc1ccc(-c2c(=O)n(OCc3nc4ccccc4[nH]3)c3ccccc3[n+]2[O-])cc1`: the “growth rescue (activation)” value was inactive: 13.4%.

With `COC(=O)c1nn(-c2nc(-c3cccc(OC)c3)cc(C(F)(F)F)n2)cc1[N+](=O)[O-]`, the “growth rescue (activation)” value is inactive: -4.68%.

For `Cc1c(NC(N)=O)c(=O)n(-c2ccccc2)n1C`, the “growth rescue (activation)” value was inactive: 6.45%.

As to `N#Cc1cccc(S(=O)(=O)NNC(=O)C23CC4CC(CC(C4)C2)C3)c1`, the “growth rescue (activation)” value was inactive: 14%.

Take `CCOC(=O)C(=O)C1=CN(Cc2ccccc2)C=C(C#N)C1`: the “growth rescue (activation)” value is inactive: 11.4%.

As to `Cc1ccccc1-n1ccnc1SCC(=O)Nc1cccc(S(=O)(=O)NC2=NCCC2)c1`, the “growth rescue (activation)” value was inactive: 4.54%.

Consider `Cc1cccc(C(=O)N[C@H](C(=O)OCC(=O)NC2CCS(=O)(=O)C2)C(C)C)c1` (some centres not stated), for which the “growth rescue (activation)” value is inactive: -6.16%.

Consider `CCN(CC)S(=O)(=O)c1cccc(NC2=NCC(C)S2)c1` (configuration not stated), for which the “growth rescue (activation)” value was inactive: 9.18%.

As to `C=CCNC(=O)C1CCCN(S(=O)(=O)c2ccc(-n3cnnn3)cc2)C1` (configuration not stated), the “growth rescue (activation)” value was inactive: 15.1%.

Take `O=C(Nc1nc2ccccc2[nH]1)c1cccc([N+](=O)[O-])c1`: the “growth rescue (activation)” value was inactive: -1.1%.

As for `O=C(CNc1ccc2ccccc2c1)N/N=C/c1ccccn1`, the “growth rescue (activation)” value is inactive: 9.12%.

As to `O=C(CCc1nc2ccccc2c(=O)[nH]1)OCc1cccc(C(F)(F)F)c1`, the “growth rescue (activation)” value is inactive: 27.5%.

Take `COc1ccc2c(c1)c(C(O)CN1CCC(Cc3ccccc3)CC1)c(C)n2C` (configuration not stated): the “growth rescue (activation)” value is inactive: 24.3%.

With `COc1ccc(/C=C/c2nc(-c3ccccc3)cc(=O)[nH]2)cc1`, the “growth rescue (activation)” value was inactive: 17.7%.

For `COc1ccc(S(=O)(=O)N2CCN(c3cnccn3)CC2)cc1OC`, the “growth rescue (activation)” value was inactive: -19.8%.

Turning to `NC(=O)CN1C(=O)NC2(CCOc3ccccc32)C1=O` (configuration not stated), the “growth rescue (activation)” value was inactive: 13.6%.

Consider `CNc1ncnc2c1ncn2[C@H]1CN(Cc2ccco2)C[C@@H](CO)O1`, for which the “growth rescue (activation)” value is inactive: 4.64%.

Turning to `COCCNC(=S)NNC(=O)c1cccs1`, the “growth rescue (activation)” value was inactive: 1.55%.

As for `COc1ccc(-c2nnc(CSc3nc4ccccc4c(=O)n3CC3CCCO3)o2)cc1OC` (configuration not stated), the “growth rescue (activation)” value is inactive: -0.142%.

In the case of `CN(C(=O)C1CCC(=O)N(Cc2ccccc2F)C1)C1CCOCC1` (configuration not stated), the “growth rescue (activation)” value is inactive: 12.8%.

Consider `CC(C(=O)OCC(=O)c1ccc(Br)cc1)N1C(=O)C2C3C=CC(C3)C2C1=O` (configuration not stated), for which the “growth rescue (activation)” value was inactive: -6.84%.

Consider `COc1ccc(C(=O)Nc2ccc(S(=O)(=O)Nc3cc(C)nc(C)n3)cc2)cc1OC`, for which the “growth rescue (activation)” value was inactive: 8.57%.

Turning to `Cc1ccc(-c2ccc(CCC(=O)O)n2NC(=O)c2ccc([N+](=O)[O-])cc2)cc1`, the “growth rescue (activation)” value was inactive: 21.1%.

`Cc1cc(Cl)c(OCCOCCN2CCN(C)CC2)c(Br)c1`: the “growth rescue (activation)” value is inactive: 2.37%.
